Measurements from PubChem BioAssay AID488969 (Vanderbilt High Throughput Screening Facility, 2010).
Whole data set: some 110,000 compounds, median “z-score” near -0.1, cut for the highest 2% near 2. The list shows a part of the results.

Target: Metabotropic glutamate receptor 8 (Rattus norvegicus) (UniProt P70579)
Assay: rat mGluR8 modulators via GIRK flux, primary screen, cell-based, thallium flux, HTS (AID 488969)
Settings: HEK293 rat mGluR8, GIRK (G protein-gated inwardly rectifying potassium channel) thallium flux, FluoZin2; at 10 µM; stronger effect = higher value; submaximal glutamate (EC20) added with thallium

Sequence of UniProt P70579 (P70579 whole entry, looked up): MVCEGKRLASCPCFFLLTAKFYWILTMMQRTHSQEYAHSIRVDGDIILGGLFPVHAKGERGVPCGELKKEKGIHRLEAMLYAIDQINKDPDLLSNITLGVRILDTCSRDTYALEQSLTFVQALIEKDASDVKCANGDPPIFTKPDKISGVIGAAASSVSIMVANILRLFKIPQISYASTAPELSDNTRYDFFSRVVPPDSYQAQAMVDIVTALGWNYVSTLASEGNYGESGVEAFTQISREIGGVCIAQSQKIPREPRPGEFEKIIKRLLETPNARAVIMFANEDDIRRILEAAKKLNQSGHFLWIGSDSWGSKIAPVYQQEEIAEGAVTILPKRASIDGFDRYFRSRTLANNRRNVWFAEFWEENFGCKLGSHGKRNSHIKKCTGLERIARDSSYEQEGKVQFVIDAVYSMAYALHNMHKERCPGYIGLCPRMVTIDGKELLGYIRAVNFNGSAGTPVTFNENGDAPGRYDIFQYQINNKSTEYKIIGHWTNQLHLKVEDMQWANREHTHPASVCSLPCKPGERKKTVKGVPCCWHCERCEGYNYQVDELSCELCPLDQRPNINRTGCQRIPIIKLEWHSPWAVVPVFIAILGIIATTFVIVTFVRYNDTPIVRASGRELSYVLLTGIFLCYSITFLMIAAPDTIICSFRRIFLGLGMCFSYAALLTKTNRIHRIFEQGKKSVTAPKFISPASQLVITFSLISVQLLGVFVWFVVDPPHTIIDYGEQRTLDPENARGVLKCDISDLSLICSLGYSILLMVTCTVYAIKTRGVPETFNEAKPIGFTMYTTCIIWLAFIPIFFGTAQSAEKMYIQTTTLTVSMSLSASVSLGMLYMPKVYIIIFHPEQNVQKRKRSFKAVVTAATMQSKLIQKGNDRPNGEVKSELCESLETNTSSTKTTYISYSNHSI

**Q.** Which z-score does the source give for CCOc1ccc(Nc2oc(-c3cccc(Cl)c3)nc2C#N)cc1 here?
**A.** -0.0538

**Q.** How did the z-score turn out when Cc1ccc(Nc2nc(COC(=O)COc3ccc(C=O)cc3)cs2)cc1 was run?
**A.** -0.821

**Q.** Which z-score does the source give for CCOc1cc(C(=O)N/N=C/C2CC=CCC2)cc(OCC)c1OCC (stereo unspecified) here?
**A.** -0.357

**Q.** For COc1ccc(C(=O)Nc2nc(-c3ccc(OC)cc3)c(-c3ccc([N+](=O)[O-])cc3)s2)cc1, which z-score is on record?
**A.** -0.987

**Q.** For COc1cc(/C=N/NC(=S)N/N=C/c2cc(OC)c(OC)c(OC)c2)cc(OC)c1OC, which z-score is on record?
**A.** -0.0296

**Q.** CSc1cccc(NS(=O)(=O)c2ccc(F)cc2)c1 was tested. Which z-score did it give?
**A.** -0.177

**Q.** Cc1cccc(-c2nnc(SCc3ccccc3)o2)c1 was tested. Which z-score did it give?
**A.** 0.697

**Q.** Which z-score does the source give for Cc1cc(N2C(=O)CC(N3CCN(C(c4ccccc4)c4ccccc4)CC3)C2=O)no1 (stereo unspecified) here?
**A.** -0.103

**Q.** How did the z-score turn out when Cc1ccc(/C=N/Nc2ccnc3cc(Cl)ccc23)c(C)c1 was run?
**A.** -0.412

**Q.** With CCN(CC)C(=O)CSc1nc2ccccc2c(=O)n1CCC(=O)NCc1ccc(F)cc1 as the compound, how does the z-score read?
**A.** -0.611

**Q.** For NC(=O)CSc1nnc(Cc2csc(Nc3ccc(F)cc3)n2)n1Cc1ccccc1, which z-score is on record?
**A.** -0.594

**Q.** Which z-score does the source give for Cc1cc(NC(=O)Cn2cnc3c(cnn3C(C)(C)C)c2=O)no1 here?
**A.** 0.423

**Q.** For C=CCSc1nnc(Cc2cc(=O)[nH]c(=O)[nH]2)n1-c1cc(C)ccc1C, which z-score is on record?
**A.** -0.111

**Q.** For COC(=O)c1ccc(N2C(=O)CC(NCc3ccccc3)C2=O)cc1 (stereo unspecified), which z-score is on record?
**A.** 0.444

**Q.** Which z-score does the source give for COCc1cc(/C=N\NC(=O)c2ccc(Cl)cc2)ccc1OC here?
**A.** -0.113

**Q.** With CCOC(=O)Nc1nc2ccccc2s1 as the compound, how does the z-score read?
**A.** 0.216

**Q.** CC(C)N(Cc1nc(-c2ccccc2)no1)C(=O)C(C)(C)C was tested. Which z-score did it give?
**A.** -0.0476

**Q.** For COc1ccc(N2CCN(C(=O)c3cn(C)c(=O)c4c3c3ccccc3n4C)CC2)cc1, which z-score is on record?
**A.** -0.991

**Q.** For COc1ccc(/C(C)=C(\C#N)C(=O)OC(C)C)cc1OC, which z-score is on record?
**A.** -1.07

**Q.** How did the z-score turn out when O=C(Cn1ccc(C(F)(F)F)n1)N/N=C/c1ccc2c(c1)OCO2 was run?
**A.** -0.0923

**Q.** For CCOC(=O)c1c(NC(=O)CSc2nnc(CNc3ccc(C)cc3C)o2)sc(C)c1C, which z-score is on record?
**A.** -0.0907

**Q.** With CCOc1cc(/C=C2/NC(=O)N(Cc3ccccc3F)C2=O)ccc1O as the compound, how does the z-score read?
**A.** -0.759

**Q.** Which z-score does the source give for CCOC(=O)CNC(=O)c1ccccc1 here?
**A.** -0.434

**Q.** With Cc1cc(NC(=O)CCC(=O)N(CC(=O)NC2CCCC2)c2ccccc2)no1 as the compound, how does the z-score read?
**A.** 0.384

**Q.** With CCOCCCNS(=O)(=O)c1ccc(Br)cc1 as the compound, how does the z-score read?
**A.** 0.472

**Q.** With Cc1cc(CN2CCOCC2)c(O)c(C2(C)CCCCC2)c1 as the compound, how does the z-score read?
**A.** -0.149

**Q.** For O=c1cc(-c2ccc(F)cc2)oc2ccccc12, which z-score is on record?
**A.** -0.012

**Q.** Which z-score does the source give for CC(/C=C/c1ccccc1)=N\NC(N)=S here?
**A.** -0.00559

**Q.** COc1ccc(C(=O)NCCn2ccc3ccccc32)cc1 was tested. Which z-score did it give?
**A.** -0.162

**Q.** COc1ccccc1N1CCN(c2nc(C)nc3c2oc2ccccc23)CC1 was tested. Which z-score did it give?
**A.** 0.614

**Q.** CCC1=C/C(=C\c2ccc3c(c2)OCO3)C(=O)S1 was tested. Which z-score did it give?
**A.** 0.0279

**Q.** For CCOC(=O)N1CCC(NC(=O)CSCc2nc(-c3cccc(OC)c3)oc2C)CC1, which z-score is on record?
**A.** -0.244

**Q.** How did the z-score turn out when O=[N+]([O-])c1ccc(-c2ccc(/C=N/c3c(-c4ccco4)nc4ccccn34)o2)c(Cl)c1 was run?
**A.** -0.142

**Q.** How did the z-score turn out when CC(=O)NC1=NN(C(C)=O)C(C)(CS(=O)(=O)c2ccc(Cl)cc2)S1 (stereo unspecified) was run?
**A.** -0.00879

**Q.** How did the z-score turn out when CCNc1nc2c(c(=O)[nH]c(=O)n2C)n1CC(C)C was run?
**A.** -0.237

**Q.** How did the z-score turn out when Cc1ccc(C(=O)O/N=C2\CCS(=O)(=O)c3sccc32)cc1 was run?
**A.** -0.129

**Q.** COc1ccc2c(c1)C(C)=CC(C)(C)N2C(=O)CNCc1ccc2c(c1)OCO2 was tested. Which z-score did it give?
**A.** -0.359

**Q.** How did the z-score turn out when Cn1cc(Br)c(C(=O)N2CCc3ccccc32)n1 was run?
**A.** -0.257

**Q.** Which z-score does the source give for CC(c1ccccc1)N1C(=O)NC(NC(=O)c2cccnc2)(C(F)(F)F)C1=O (stereo unspecified) here?
**A.** 0.102

**Q.** With COc1ccc(S(=O)(=O)N2c3ccccc3OCC2c2ccccc2)cc1 (stereo unspecified) as the compound, how does the z-score read?
**A.** -0.22

**Q.** How did the z-score turn out when Cc1ccccc1N1CCN(C(=S)c2ccc([N+](=O)[O-])cc2)CC1 was run?
**A.** -0.296

**Q.** How did the z-score turn out when CCOc1c2ccc(C(=O)NCc3ccc(OC)cc3)cc2nn1CCOC was run?
**A.** -0.0472

**Q.** With CCOC(=O)c1cnn(-c2ncnc3sc(C)c(C)c23)c1N as the compound, how does the z-score read?
**A.** 0.0294

**Q.** For O=P1(Nn2cnnc2)C=C(c2ccccc2)OC(c2ccccc2)=C1, which z-score is on record?
**A.** 0.0913

**Q.** For Cc1cc(OCC(=O)NC(C)(C)C)ccc1Cl, which z-score is on record?
**A.** -0.188

**Q.** Which z-score does the source give for CCCn1c(=S)[nH]c2cc(OC)c(OC)cc2c1=O here?
**A.** 0.397

**Q.** COc1ccc2nc(Nc3sc4c(c3C(N)=O)CCCC4)sc2c1 was tested. Which z-score did it give?
**A.** 1.32

**Q.** With Cc1cc(=O)[nH]c(N/N=C/c2cccs2)n1 as the compound, how does the z-score read?
**A.** -0.0197

**Q.** Which z-score does the source give for O=C(O)CCCC(=O)NCCc1cccc(Cl)c1 here?
**A.** -0.179

**Q.** Which z-score does the source give for Cc1ccc(NC(=S)N/N=C/c2c(C)nn(-c3ccccc3)c2N2CCCC2)cc1 here?
**A.** 0.376

**Q.** How did the z-score turn out when Cc1cccc(NC(=S)NC(NC(=O)c2ccco2)C(Cl)(Cl)Cl)c1 (stereo unspecified) was run?
**A.** 0.384

**Q.** For COc1cccc(-n2ccnc2SCC(=O)N2CCCc3ccccc32)c1, which z-score is on record?
**A.** 0.0268

**Q.** How did the z-score turn out when Cc1ccc(OCCn2cc(/C=N/NC(=O)c3ccncc3)c3ccccc32)cc1 was run?
**A.** -0.0479

**Q.** CC12C(=O)N(c3nccs3)C(=O)C1C1C=CC2C1 (stereo unspecified) was tested. Which z-score did it give?
**A.** 0.111

**Q.** How did the z-score turn out when Cc1ccc(NC(=S)NC(NC(=O)C(C)(C)C)C(Cl)(Cl)Cl)c(C)c1 (stereo unspecified) was run?
**A.** -0.0869

**Q.** For COc1cccc(C(=O)NNC(=O)C2CC(C)=C(C)CC2C(=O)O)c1 (stereo unspecified), which z-score is on record?
**A.** 0.0271
